# In the supplement of paper PMC3694890:
# ± gives the uncertainty stated by the source. The list shows a part of the results. Phosphotyrosine is written y.
# Target: GRB2 (endogenous complexes from cell lysate), P62993
# Assay: GRB2 complex binding differential signal (pY peptide minus Ala control peptide) (fluorescence intensity units); higher = stronger GRB2 complex binding
# Method: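 In situ synthesized µParaflo PepArray of 6-mer peptides, each starting with an N-terminal phosphotyrosine (lowercase 'y' = pY) followed by 5 native residues. Peptides are tethered to glass through a long linker. Chips were incubated overnight at 4°C with total cell lysate (1 mg in 1 mL) from MCF10A, MCF7, T47D or MDA-MB-231 cells. Bound endogenous GRB2-containing complexes were detected with rabbit anti-GRB2 and an Alexa647 secondary antibody. Signals are background-subtracted and averaged over replicate spots, then the matched Ala-substituted control peptide signal is subtracted (differential signal).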
# 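Further: phosphopeptide probes on the chip at 1–4 µM, lysate proteins bound in 20 mM Tris pH 7.0 buffer with 140 mM NaCl, 1% Triton X-100 and 5% glycerol.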
Binder,GRB2 complex binding differential signal (MCF7),GRB2 complex binding differential signal (MCF10A),GRB2 complex binding differential signal (MDA-MB-231),GRB2 complex binding differential signal (T47D)
yDTSDP [EPHB2_780/A1],975 ± 260,239 ± 350,821 ± 510,153 ± 970
yLVPQQ [ERBB2_1023/A1],7650 ± 2200,2720 ± 1500,1870 ± 410,966 ± 1100
yVNQPD [ERBB2_1139/A1],51000 ± 7800,49100 ± 5300,13700 ± 2400,19400 ± 8000
yHADGG [ERBB2_877/A1],840 ± 790,1090 ± 440,339 ± 390,18.2 ± 1100
yIAPGM [EPHB3_600/A1],22000 ± 2100,7240 ± 2200,2450 ± 660,3690 ± 1300
yYWDQD [ERBB2_1221/A1],135 ± 490,-144 ± 390,287 ± 260,-31.2 ± 820
ySEDPT [ERBB2_1112/A1],846 ± 740,1030 ± 430,849 ± 280,416 ± 1100
yWDQDP [ERBB2_1222/A1],-160 ± 350,2.93 ± 180,390 ± 260,-3.95 ± 1600
yLTPQG [ERBB2_1196/A1],12100 ± 3600,7280 ± 1100,2360 ± 510,2010 ± 1400
yAAMGA [ERBB3_1276/A1],1680 ± 310,1170 ± 200,1050 ± 330,2150 ± 1300
yKGIWI [ERBB2_735/A1],378 ± 160,90 ± 180,516 ± 390,1370 ± 1000
yRSLLE [ERBB2_1005/A1],510 ± 460,422 ± 290,1110 ± 520,1280 ± 1200
yLGLDV [ERBB2_1248/A1],50.1 ± 330,200 ± 200,671 ± 320,226 ± 890
yMNRQR [ERBB3_1262/A1],10000 ± 1100,8610 ± 2100,3730 ± 750,8860 ± 2100
yVGVWK [ABL2_303/A1],248 ± 180,199 ± 280,1270 ± 460,3400 ± 1200
yELTGN [ABL2_683/A1],1340 ± 650,889 ± 380,1010 ± 330,1180 ± 1200
yMNRRR [ERBB3_1199/A1],17300 ± 3600,6870 ± 1300,3320 ± 460,5420 ± 2000
